# Measured values as given in the supplement of paper PMC8728848.
# Some of the results follow.
# B1: Mincle (Homo sapiens), Q9ULY5 (protein)
# chain: MNSSKSSETQCTERGCFSSQMFLWTVAGIPILFLSACFITRCVVTFRIFQTCDEKKFQLPENFTELSCYNYGSGSVKNCCPLNWEYFQSSCYFFSTDTISWALSLKNCSAMGAHLVVINSQEEQEFLSYKKPKMREFFIGLSDQVVEGQWQWVDGTPLTKSLSFWDVGEPNNIATLEDCATMRDSSNPRQNWNDVTCFLNYFRICEMVGINPLNKGKSL
# How the values were obtained:
# Assay in all cases: glycan array binding signal (z-score within array); higher = stronger binding
# Conditions in all cases: glycan notation: IUPAC condensed, linker removed
# [1] = target: Fuc(a1-3)[Gal(b1-4)]GlcNAc6S
# Outline: (§1)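 Glycan array binding is given as a within-array Z-score, which can be read as non-binding when negative. The arrays, 3228 of them, came from the Consortium for Functional Glycomics database and were retained only where the protein sequence was available. Z-scores were averaged across arrays of the same protein sequence at different concentrations or buffers and across linkers.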
# [2] = target: Fuc(a1-3)[Gal3S(b1-4)]Glc6S
# Outline: as §1
# [3] = target: Fuc(a1-3)[Gal3S(b1-4)]GlcNAc
# Outline: as §1
# [4] = target: Fuc(a1-3)[Gal3S(b1-4)]GlcNAc6S
# Outline: as §1
# [5] = target: Fuc(a1-3)[GalNAc(b1-4)]GlcNAc
# Outline: as §1
# Fuc(a1-4)GlcNAc = target: Fuc(a1-4)GlcNAc
# Outline: as §1
# Fuc(b1-3)GlcNAc = target: Fuc(b1-3)GlcNAc
# Outline: as §1
# Gal(a1-2)Gal = target: Gal(a1-2)Gal
# Outline: as §1
# Gal(a1-3)Gal = target: Gal(a1-3)Gal
# Outline: as §1
# Gal(a1-3)Gal(b1-3)GlcNAc = target: Gal(a1-3)Gal(b1-3)GlcNAc
# Outline: as §1
# [6] = target: Gal(a1-3)Gal(b1-3)GlcNAc(b1-2)Man(a1-3)[Gal(a1-3)Gal(b1-3)GlcNAc(b1-2)Man(a1-6)]Man(b1-4)GlcNAc(b1-4)GlcNAc
# Outline: as §1
# [7] = target: Gal(a1-3)Gal(b1-3)[Fuc(a1-4)]GlcNAc(b1-2)Man(a1-3)[Gal(a1-3)Gal(b1-3)[Fuc(a1-4)]GlcNAc(b1-2)Man(a1-6)]Man(b1-4)GlcNAc(b1-4)GlcNAc
# Outline: as §1
# Gal(a1-3)Gal(b1-4)Glc = target: Gal(a1-3)Gal(b1-4)Glc
# Outline: as §1
# Gal(a1-3)Gal(b1-4)GlcNAc = target: Gal(a1-3)Gal(b1-4)GlcNAc
# Outline: as §1
# [8] = target: Gal(a1-3)Gal(b1-4)GlcNAc(b1-3)GalNAc
# Outline: as §1
# [9] = target: Gal(a1-3)Gal(b1-4)[Fuc(a1-3)]GlcNAc
# Outline: as §1
# [10] = target: Gal(a1-3)Gal(b1-4)[Fuc(a1-3)]GlcNAc(b1-2)Man(a1-3)[Gal(a1-3)Gal(b1-4)[Fuc(a1-3)]GlcNAc(b1-2)Man(a1-6)]Man(b1-4)GlcNAc(b1-4)GlcNAc
# Outline: as §1
# Gal(a1-3)GalNAc = target: Gal(a1-3)GalNAc
# Outline: as §1
# [11] = target: Gal(a1-3)[Gal(a1-4)]Gal(b1-4)GlcNAc
# Outline: as §1
# [12] = target: Gal(a1-4)Gal(b1-3)GlcNAc(b1-2)Man(a1-3)[Gal(a1-4)Gal(b1-3)GlcNAc(b1-2)Man(a1-6)]Man(b1-4)GlcNAc(b1-4)GlcNAc
# Outline: as §1
# Gal(a1-4)Gal(b1-4)Glc = target: Gal(a1-4)Gal(b1-4)Glc
# Outline: as §1
# Gal(a1-4)Gal(b1-4)GlcNAc = target: Gal(a1-4)Gal(b1-4)GlcNAc
# Outline: as §1
# [13] = target: Gal(a1-4)Gal(b1-4)GlcNAc(b1-2)Man(a1-3)[Gal(a1-4)Gal(b1-4)GlcNAc(b1-2)Man(a1-6)]Man(b1-4)GlcNAc(b1-4)GlcNAc
# Outline: as §1
# [14] = target: Gal(a1-4)Gal(b1-4)GlcNAc(b1-3)Gal(b1-4)Glc
# Outline: as §1
# Gal(a1-4)GlcNAc = target: Gal(a1-4)GlcNAc
# Outline: as §1
# Gal(a1-6)Glc = target: Gal(a1-6)Glc
# Outline: as §1
# Gal(b1-2)Gal = target: Gal(b1-2)Gal
# Outline: as §1
# Gal(b1-3)Gal = target: Gal(b1-3)Gal
# Outline: as §1
# Gal(b1-3)Gal(b1-4)GlcNAc = target: Gal(b1-3)Gal(b1-4)GlcNAc
# Outline: as §1
# [15] = target: Gal(b1-3)Gal(b1-4)GlcNAc(b1-2)Man(a1-3)[Gal(b1-3)Gal(b1-4)GlcNAc(b1-2)Man(a1-6)]Man(b1-4)GlcNAc(b1-4)GlcNAc
# Outline: as §1
# Gal(b1-3)GalNAc = target: Gal(b1-3)GalNAc
# Outline: as §1
# [16] = target: Gal(b1-3)GalNAc(a1-3)[Fuc(a1-2)]Gal(b1-4)Glc
# Outline: as §1
# [17] = target: Gal(b1-3)GalNAc(a1-3)[Fuc(a1-2)]Gal(b1-4)GlcNAc
# Outline: as §1
# [18] = target: Gal(b1-3)GalNAc(b1-3)Gal(a1-4)Gal(b1-4)Glc
# Outline: as §1
# [19] = target: Gal(b1-3)GalNAc(b1-4)Gal(b1-4)Glc
# Outline: as §1
# [20] = target: Gal(b1-3)GalNAc(b1-4)[Neu5Ac(a2-3)]Gal(b1-4)Glc
# Outline: as §1
# Gal(b1-3)GlcNAc = target: Gal(b1-3)GlcNAc
# Outline: as §1
# [21] = target: Gal(b1-3)GlcNAc(a1-6)Gal(b1-4)GlcNAc
# Outline: as §1
# [22] = target: Gal(b1-3)GlcNAc(b1-2)Man(a1-3)[Gal(b1-3)GlcNAc(b1-2)Man(a1-6)]Man(b1-4)GlcNAc(b1-4)GlcNAc
# Outline: as §1
# [23] = target: Gal(b1-3)GlcNAc(b1-2)Man(a1-3)[Gal(b1-3)GlcNAc(b1-2)Man(a1-6)]Man(b1-4)GlcNAc(b1-4)[Fuc(a1-6)]GlcNAc
# Outline: as §1
# [24] = target: Gal(b1-3)GlcNAc(b1-3)Gal(b1-3)GlcNAc
# Outline: as §1
# [25] = target: Gal(b1-3)GlcNAc(b1-3)Gal(b1-4)Glc
# Outline: as §1
# [26] = target: Gal(b1-3)GlcNAc(b1-3)Gal(b1-4)GlcNAc
# Outline: as §1
# [27] = target: Gal(b1-3)GlcNAc(b1-3)Gal(b1-4)GlcNAc(b1-6)[Gal(b1-3)GlcNAc(b1-3)]Gal(b1-4)Glc
# Outline: as §1
# [28] = target: Gal(b1-3)GlcNAc(b1-3)Gal(b1-4)[Fuc(a1-3)]GlcNAc(b1-6)[Gal(b1-3)GlcNAc(b1-3)]Gal(b1-4)Glc
# Outline: as §1
binder,measurement,setting,value
B1,glycan array binding signal (z-score),[1],0.036
same,glycan array binding signal (z-score),[2],0.712
same,glycan array binding signal (z-score),[3],-0.043
same,glycan array binding signal (z-score),[4],0.843
same,glycan array binding signal (z-score),[5],-0.335
same,glycan array binding signal (z-score),Fuc(a1-4)GlcNAc,-0.457
same,glycan array binding signal (z-score),Fuc(b1-3)GlcNAc,-0.396
same,glycan array binding signal (z-score),Gal(a1-2)Gal,-0.433
same,glycan array binding signal (z-score),Gal(a1-3)Gal,-0.01
same,glycan array binding signal (z-score),Gal(a1-3)Gal(b1-3)GlcNAc,-0.143
same,glycan array binding signal (z-score),[6],4.69
same,glycan array binding signal (z-score),[7],-0.19
same,glycan array binding signal (z-score),Gal(a1-3)Gal(b1-4)Glc,-0.487
same,glycan array binding signal (z-score),Gal(a1-3)Gal(b1-4)GlcNAc,-0.145
same,glycan array binding signal (z-score),[8],-0.421
same,glycan array binding signal (z-score),[9],0.004
same,glycan array binding signal (z-score),[10],0.526
same,glycan array binding signal (z-score),Gal(a1-3)GalNAc,-0.251
same,glycan array binding signal (z-score),[11],-0.526
same,glycan array binding signal (z-score),[12],0.054
same,glycan array binding signal (z-score),Gal(a1-4)Gal(b1-4)Glc,-0.217
same,glycan array binding signal (z-score),Gal(a1-4)Gal(b1-4)GlcNAc,-0.248
same,glycan array binding signal (z-score),[13],3.26
same,glycan array binding signal (z-score),[14],0.635
same,glycan array binding signal (z-score),Gal(a1-4)GlcNAc,-0.215
same,glycan array binding signal (z-score),Gal(a1-6)Glc,-0.226
same,glycan array binding signal (z-score),Gal(b1-2)Gal,-0.483
same,glycan array binding signal (z-score),Gal(b1-3)Gal,-0.357
same,glycan array binding signal (z-score),Gal(b1-3)Gal(b1-4)GlcNAc,-0.566
same,glycan array binding signal (z-score),[15],0.477
same,glycan array binding signal (z-score),Gal(b1-3)GalNAc,-0.406
same,glycan array binding signal (z-score),[16],-0.382
same,glycan array binding signal (z-score),[17],-0.127
same,glycan array binding signal (z-score),[18],-0.251
same,glycan array binding signal (z-score),[19],-0.412
same,glycan array binding signal (z-score),[20],-0.298
same,glycan array binding signal (z-score),Gal(b1-3)GlcNAc,-0.385
same,glycan array binding signal (z-score),[21],-0.062
same,glycan array binding signal (z-score),[22],0.064
same,glycan array binding signal (z-score),[23],0.118
same,glycan array binding signal (z-score),[24],-0.365
same,glycan array binding signal (z-score),[25],-0.33
same,glycan array binding signal (z-score),[26],-0.283
same,glycan array binding signal (z-score),[27],6.4
same,glycan array binding signal (z-score),[28],0.04
